Source: PubChem BioAssay AID1347120 (National Center for Advancing Translational Sciences (NCATS), 2019)
About 930 (0.24%) of roughly 390,000 compounds were called active. The inconclusive results got no clear call from the source; some entries with a clear call stand among them for comparison. Calls come from the whole dose curve; as a rule, active = well fitted activation curve with a large enough effect; inconclusive = small, poorly fitted or top-dose-only effect; inactive = no such curve, though single readings can be large or run the other way. Potencies beside an inconclusive call are fits to weak or partial responses and may not hold up. Square brackets hold non-standard residues; d marks the D form. Peptide text beside a SMILES is read from it. * marks the point of attachment. ξ: configuration not given here. Boc = CC(C)(C)OC(=O)*; NHBn = c1ccc(CN*)cc1; ξV = CC(C)C(N)C(=O)O

Experiment: qHTS for Suppressors of FUS Proteinopathy: Primary screen using FUS-linked yeast assay; note: nearly all actives have a fitted effect of over 55% in size
Settings: S. cerevisiae FUS-expressing, OD600, 24 h; Potency: growth rescue; series mostly up to 76.6 µM
Procedure, shortened: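 FUS-expressing yeast, raffinose-pregrown, induced in 2% galactose minimal medium at OD 0.005; compounds in a dilution series, 24hr at 30C. Growth restoration read as absorbance at 600 nm. CP55940 positive control, DMSO negative.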
Potency is the fitted concentration of half-maximal effect; tags give direction and shape of the fitted curve.

Compound	Potency
Cc1nc2c(sc3nc(N4CCOCC4)c4c(c32)CC(C)(C)OC4)c(-c2ccc(Cl)cc2)c1C(=O)O	inconclusive: 35.5 µM [activator, single point]
O=c1oc2ccccc2cc1-c1ccc(O)cc1	inconclusive: 44.7 µM [activator, partial curve, poor fit]
CCOC(=O)c1sc(N2C(=O)C(O)=C(C(=O)c3ccc(C)o3)C2c2ccc(OC)c(OC)c2)nc1C (configuration not stated)	inconclusive: 31.6 µM [activator, partial curve]
COc1cc(CNn2nnnc2N)cc(Br)c1OCc1c(Cl)cccc1Cl	inactive
Cc1c(N(C(=O)CNC(=O)c2ccccc2)C2(C(=O)NC3CCCC3)CCCCC2)c(=O)n(-c2ccccc2)n1C	inconclusive: 11.2 µM [activator, single point]
CCCn1c(C(CO)Nc2nc(-c3cccc(Br)c3)cs2)nc2ccccc21 (configuration not stated)	inconclusive: 50.1 µM [activator, single point]
COc1cccc(-c2ccc(=O)n(CC(=O)NCCN3CCOCC3)n2)c1	inactive
COc1ccc(C(=O)N/C(=C\c2cn(S(=O)(=O)N(C)C)c3ccccc23)C(=O)N2CCN(C)CC2)cc1OC	inactive
O=C(Nc1ccccc1C(=O)Nc1nnc(C(F)(F)F)s1)c1ccccc1Cl	inactive
O=c1[nH]nc(CNc2ccc(O)cc2)c2ccccc12	inactive
CCC/C=C/c1ccc(CN2C(C)C(=O)N(Cc3cn(Cc4ccco4)nn3)CCS2(=O)=O)cc1 (configuration not stated)	inconclusive: 25.1 µM [activator, single point]
CC(C)C(NC(=O)CNC(=O)OC(C)(C)C)C(=O)NCc1ccccc1 (stereo not drawn) (Boc-Gly-[ξV]-NHBn)	inconclusive: 5.62 µM [activator, single point]
Cc1cc(SCC(=O)N/N=C/c2ccc(O)cc2O)nc2ccccc12	inconclusive: 25.1 µM [activator, partial curve]
CCCCOCCCNC(=O)C[C@H]1C[C@@]2(C(=O)OC)C(=C[C@H](C(C)(C)C)O[C@@H]2C)N(Cc2ccco2)C1=O	inconclusive: 14.1 µM [activator, partial curve, poor fit]
S=C(NCc1ccco1)Nc1cccc(Cl)c1Cl	inactive
C#CCOCCOCCOCCNc1nc(N2CCN(C(=O)CCCCCCCCCCNC(=O)Cn3cc(CCCCCN)nn3)CC2)nc(N2CCN(C(=O)CCCCCCCCCCNC(=O)[C@H](CO)n3cc(CCCCCN)nn3)CC2)n1	inconclusive: 14.1 µM [activator, partial curve, poor fit]
Cc1nc(N2CCCCC2C)c2nnn(Cc3ccccc3)c2n1 (configuration not stated)	inactive
